# Measurements as given in the supplement of paper PMC10037445.
# In all, about 2,900 compounds were measured (“NF-kB SEAP reporter activity, fold change vs agonist alone”: median about 0.99, highest 2% from about 2.6 on). The list shows a part of the results.
# Experiments:
# RAW-Dual [1] = experiment: NF-kB SEAP reporter activity, fold change vs agonist alone; higher = enhanced NF-kB activity
# Summary of the method: (§1)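 Supernatant from RAW-Dual macrophages was read after 20 hours for IRF by QuantiLuc luminescence and for NF-κB by QuantiBlue absorbance at 620 nm. The cells (50,000 cells/well in DMEM, 384-well plates, 37 °C, 5% CO2) had received 50 nL of library stock by pin tool and, 1 h later, a PRR agonist. Reporter activity is expressed relative to agonist-alone wells as fold change, and wells were flagged cytotoxic if IncuCyte confluency was under 70% of agonist controls in both mask sets.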
# RAW-Dual [2] = experiment: NF-kB SEAP reporter activity, fold change vs agonist alone; cytotoxicity flag (confluency mask): not cytotoxic; higher = enhanced NF-kB activity
# Summary of the method: as §1
# RAW-Dual [3] = experiment: NF-kB SEAP reporter activity, fold change vs agonist alone; cytotoxicity flag (confluency mask): cytotoxic (confluency <70% of control); higher = enhanced NF-kB activity
# Summary of the method: as §1
# [4] = library stock concentration (final ~1000-fold dilution): 2 mM, cytotoxicity flag (confluency mask): not cytotoxic, agonist: Imiquimod (TLR7) […]
# [5] = library stock concentration (final ~1000-fold dilution): 2 mM, cytotoxicity flag (confluency mask): not cytotoxic, agonist: MPLA (TLR4) […]
# [6] = agonist: ODN 1826 (TLR9) 0.5 ug/mL
# [7] = agonist: Pam2CSK4 (TLR2/6) 0.1 ug/mL
# [8] = agonist: Pam3CSK4 (TLR2/1) 0.1 ug/mL
# [9] = library stock concentration (final ~1000-fold dilution): 10 mM, cytotoxicity flag (confluency mask): not cytotoxic, agonist: Imiquimod (TLR7) […]
# [10] = library stock concentration (final ~1000-fold dilution): 10 mM, cytotoxicity flag (confluency mask): not cytotoxic, agonist: MPLA (TLR4) […]
smiles,measurement,setting,value
O=C1NC(=O)/C(=C/c2ccc3nccc(-c4ccncc4)c3c2)S1,NF-kB SEAP reporter activity,RAW-Dual [1]; [4],0.734
same,NF-kB SEAP reporter activity,RAW-Dual [1]; [5],1.12
CCCc1ncc(C[n+]2ccccc2C)c(N)n1 (library stock concentration (final ~1000-fold dilution): 10 mM water),NF-kB SEAP reporter activity,RAW-Dual [2]; agonist: LPS (TLR4) 0.1 ug/mL,1.27
same,NF-kB SEAP reporter activity,RAW-Dual [2]; [6],1.13
same,NF-kB SEAP reporter activity,RAW-Dual [2]; [7],1.26
same,NF-kB SEAP reporter activity,RAW-Dual [2]; [8],1.27
CCCc1ncc(C[n+]2ccccc2C)c(N)n1,NF-kB SEAP reporter activity,"RAW-Dual [1]; library stock concentration (final ~1000-fold dilution): 10 mM water, cytotoxicity flag (confluency mask): not cytotoxic, agonist: Imiquimod (TLR7) […]",0.977
same,NF-kB SEAP reporter activity,"RAW-Dual [1]; library stock concentration (final ~1000-fold dilution): 10 mM water, cytotoxicity flag (confluency mask): not cytotoxic, agonist: MPLA (TLR4) […]",0.961
C=C(CC)C(=O)c1ccc(OCC(=O)O)c(Cl)c1Cl (library stock concentration (final ~1000-fold dilution): 10 mM),NF-kB SEAP reporter activity,RAW-Dual [2]; agonist: LPS (TLR4) 0.1 ug/mL,0.518
same,NF-kB SEAP reporter activity,RAW-Dual [2]; [6],0.532
same,NF-kB SEAP reporter activity,RAW-Dual [2]; [7],0.982
same,NF-kB SEAP reporter activity,RAW-Dual [2]; [8],0.696
C=C(CC)C(=O)c1ccc(OCC(=O)O)c(Cl)c1Cl,NF-kB SEAP reporter activity,RAW-Dual [1]; [9],0.993
same,NF-kB SEAP reporter activity,RAW-Dual [1]; [10],0.86
CCc1c2c(nc3ccc(O)cc13)-c1cc3c(c(=O)n1C2)COC(=O)C3(O)CC (centres undefined),NF-kB SEAP reporter activity,RAW-Dual [1]; [10],1.59
CCc1c2c(nc3ccc(O)cc13)-c1cc3c(c(=O)n1C2)COC(=O)C3(O)CC (centres undefined) (library stock concentration (final ~1000-fold dilution): 10 mM),NF-kB SEAP reporter activity,RAW-Dual [2]; agonist: LPS (TLR4) 0.1 ug/mL,2.16
same,NF-kB SEAP reporter activity,RAW-Dual [2]; [6],1.39
same,NF-kB SEAP reporter activity,RAW-Dual [2]; [7],0.867
same,NF-kB SEAP reporter activity,RAW-Dual [2]; [8],0.98
CCOCCn1c(C2CCN(CCc3ccc(C(C)(C)C(=O)O)cc3)CC2)nc2ccccc21,NF-kB SEAP reporter activity,RAW-Dual [1]; [4],0.779
same,NF-kB SEAP reporter activity,RAW-Dual [1]; [5],1.11
CCOCCn1c(C2CCN(CCc3ccc(C(C)(C)C(=O)O)cc3)CC2)nc2ccccc21 (library stock concentration (final ~1000-fold dilution): 2 mM),NF-kB SEAP reporter activity,RAW-Dual [2]; agonist: LPS (TLR4) 0.1 ug/mL,1.24
same,NF-kB SEAP reporter activity,RAW-Dual [2]; [6],1.08
same,NF-kB SEAP reporter activity,RAW-Dual [2]; [7],1.08
same,NF-kB SEAP reporter activity,RAW-Dual [2]; [8],1.08
COc1ccc2c3c1OC1CC(O)C=CC31CCN(C)C2 (centres undefined) (library stock concentration (final ~1000-fold dilution): 10 mM),NF-kB SEAP reporter activity,RAW-Dual [2]; agonist: LPS (TLR4) 0.1 ug/mL,1.01
same,NF-kB SEAP reporter activity,RAW-Dual [2]; [6],1.01
same,NF-kB SEAP reporter activity,RAW-Dual [2]; [7],1.05
same,NF-kB SEAP reporter activity,RAW-Dual [2]; [8],1.04
COc1ccc2c3c1OC1CC(O)C=CC31CCN(C)C2 (centres undefined),NF-kB SEAP reporter activity,RAW-Dual [1]; [9],0.888
same,NF-kB SEAP reporter activity,RAW-Dual [1]; [10],1.04
O=C(COc1cccc2c(=O)[nH]ccc12)c1ccccc1 (library stock concentration (final ~1000-fold dilution): 10 mM),NF-kB SEAP reporter activity,RAW-Dual [2]; agonist: LPS (TLR4) 0.1 ug/mL,1.28
same,NF-kB SEAP reporter activity,RAW-Dual [2]; [6],1.17
same,NF-kB SEAP reporter activity,RAW-Dual [2]; [7],1.35
same,NF-kB SEAP reporter activity,RAW-Dual [2]; [8],1.34
O=C(COc1cccc2c(=O)[nH]ccc12)c1ccccc1,NF-kB SEAP reporter activity,RAW-Dual [1]; [9],1.11
same,NF-kB SEAP reporter activity,RAW-Dual [1]; [10],1.1
CN(C)CC/C=C1/c2ccccc2COc2ccc(CC(=O)O)cc21.Cl,NF-kB SEAP reporter activity,RAW-Dual [1]; [9],0.932
same,NF-kB SEAP reporter activity,RAW-Dual [1]; [10],1
CN(C)CC/C=C1/c2ccccc2COc2ccc(CC(=O)O)cc21.Cl (library stock concentration (final ~1000-fold dilution): 10 mM),NF-kB SEAP reporter activity,RAW-Dual [2]; agonist: LPS (TLR4) 0.1 ug/mL,0.935
same,NF-kB SEAP reporter activity,RAW-Dual [2]; [6],1.01
same,NF-kB SEAP reporter activity,RAW-Dual [2]; [7],0.975
same,NF-kB SEAP reporter activity,RAW-Dual [2]; [8],1.16
CCCCCCOC(=O)c1cc(O)c(=O)c2c(O)c(O)c(OC)cc2c1,NF-kB SEAP reporter activity,RAW-Dual [1]; [9],1.2
same,NF-kB SEAP reporter activity,RAW-Dual [1]; [10],0.857
CCCCCCOC(=O)c1cc(O)c(=O)c2c(O)c(O)c(OC)cc2c1 (library stock concentration (final ~1000-fold dilution): 10 mM),NF-kB SEAP reporter activity,RAW-Dual [2]; agonist: LPS (TLR4) 0.1 ug/mL,0.614
same,NF-kB SEAP reporter activity,RAW-Dual [2]; [6],0.459
same,NF-kB SEAP reporter activity,RAW-Dual [2]; [7],0.599
same,NF-kB SEAP reporter activity,RAW-Dual [2]; [8],0.895
CS(=O)(=O)Nc1cc2occ(NC=O)c(=O)c2cc1Oc1ccccc1,NF-kB SEAP reporter activity,RAW-Dual [1]; [9],0.915
same,NF-kB SEAP reporter activity,RAW-Dual [1]; [10],1.01
CS(=O)(=O)Nc1cc2occ(NC=O)c(=O)c2cc1Oc1ccccc1 (library stock concentration (final ~1000-fold dilution): 10 mM),NF-kB SEAP reporter activity,RAW-Dual [2]; agonist: LPS (TLR4) 0.1 ug/mL,0.846
same,NF-kB SEAP reporter activity,RAW-Dual [2]; [6],0.884
same,NF-kB SEAP reporter activity,RAW-Dual [2]; [7],1.04
same,NF-kB SEAP reporter activity,RAW-Dual [2]; [8],0.819
CC(C)NC(=O)COc1cccc(-c2nc(Nc3ccc4[nH]ncc4c3)c3ccccc3n2)c1 (library stock concentration (final ~1000-fold dilution): 10 mM),NF-kB SEAP reporter activity,RAW-Dual [2]; agonist: LPS (TLR4) 0.1 ug/mL,1.31
same,NF-kB SEAP reporter activity,RAW-Dual [2]; [6],1.4
same,NF-kB SEAP reporter activity,RAW-Dual [2]; [7],0.383
same,NF-kB SEAP reporter activity,RAW-Dual [2]; [8],0.718
CC(C)NC(=O)COc1cccc(-c2nc(Nc3ccc4[nH]ncc4c3)c3ccccc3n2)c1,NF-kB SEAP reporter activity,RAW-Dual [1]; [9],0.95
same,NF-kB SEAP reporter activity,RAW-Dual [1]; [10],1.71
CCS(=O)(=O)Nc1ccc(Oc2ccc(F)cc2F)c(-c2cn(C)c(=O)c3[nH]ccc23)c1 (library stock concentration (final ~1000-fold dilution): 10 mM),NF-kB SEAP reporter activity,RAW-Dual [3]; agonist: LPS (TLR4) 0.1 ug/mL,3.19
same,NF-kB SEAP reporter activity,RAW-Dual [3]; [6],2.18
same,NF-kB SEAP reporter activity,RAW-Dual [3]; [7],0.424
same,NF-kB SEAP reporter activity,RAW-Dual [3]; [8],1.13
CCS(=O)(=O)Nc1ccc(Oc2ccc(F)cc2F)c(-c2cn(C)c(=O)c3[nH]ccc23)c1,NF-kB SEAP reporter activity,"RAW-Dual [1]; library stock concentration (final ~1000-fold dilution): 10 mM, cytotoxicity flag (confluency mask): cytotoxic (confluency <70% of control), agonist: Imiquimod (TLR7) […]",1.54
same,NF-kB SEAP reporter activity,"RAW-Dual [1]; library stock concentration (final ~1000-fold dilution): 10 mM, cytotoxicity flag (confluency mask): cytotoxic (confluency <70% of control), agonist: MPLA (TLR4) […]",2.13
CNc1cccc(CCOc2ccc3c(c2)CN(CC(F)(F)F)C(=O)C(CC(=O)O)C3)n1 (centres undefined),NF-kB SEAP reporter activity,RAW-Dual [1]; [9],0.935
same,NF-kB SEAP reporter activity,RAW-Dual [1]; [10],1.08
CNc1cccc(CCOc2ccc3c(c2)CN(CC(F)(F)F)C(=O)C(CC(=O)O)C3)n1 (centres undefined) (library stock concentration (final ~1000-fold dilution): 10 mM),NF-kB SEAP reporter activity,RAW-Dual [2]; agonist: LPS (TLR4) 0.1 ug/mL,1.02
same,NF-kB SEAP reporter activity,RAW-Dual [2]; [6],0.93
same,NF-kB SEAP reporter activity,RAW-Dual [2]; [7],1.06
same,NF-kB SEAP reporter activity,RAW-Dual [2]; [8],1.21
C=C(C)[C@@H]1CC[C@]2(C(=O)O)CC[C@]3(C)[C@H](CC[C@@H]4[C@@]5(C)CC[C@H](O)C(C)(C)[C@@H]5CC[C@]43C)[C@@H]12 (library stock concentration (final ~1000-fold dilution): 10 mM),NF-kB SEAP reporter activity,RAW-Dual [2]; agonist: LPS (TLR4) 0.1 ug/mL,0.97
same,NF-kB SEAP reporter activity,RAW-Dual [2]; [6],0.853
same,NF-kB SEAP reporter activity,RAW-Dual [2]; [7],0.741
same,NF-kB SEAP reporter activity,RAW-Dual [2]; [8],0.88
C=C(C)[C@@H]1CC[C@]2(C(=O)O)CC[C@]3(C)[C@H](CC[C@@H]4[C@@]5(C)CC[C@H](O)C(C)(C)[C@@H]5CC[C@]43C)[C@@H]12,NF-kB SEAP reporter activity,RAW-Dual [1]; [9],0.936
same,NF-kB SEAP reporter activity,RAW-Dual [1]; [10],1.23
